The other results are listed elsewhere or left out.

Data on 14 molecules can be found in publication PMC12136788.

T1: UNK ZnF1-3 (human, UniProt Q9C0B0 31-174)
T1 sequence: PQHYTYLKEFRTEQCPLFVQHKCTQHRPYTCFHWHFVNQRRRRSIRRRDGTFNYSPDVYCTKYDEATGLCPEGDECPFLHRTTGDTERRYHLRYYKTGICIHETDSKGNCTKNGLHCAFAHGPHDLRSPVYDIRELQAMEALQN

B1: 144403379_144403499_1112_CDS_ENSG00000184428_ENST00000329245|human|control|control (ssRNA)
RNA: GGGAGUUCUACAGUCCGACGAUCCACCGGCACUCUGUUGUAGUAGCGGAUGCAGUCCUUCCCCAGGAAGUCAAAUUCCACCACGUGUUGGCAGCCAUCGGCCUCCGGGUGCAGCUGGACGUGCUCCACGCGGAGGGAACAGCACAACAGAGGAUUGAGCAUCA
B2: chr6:75947695:75947696:-_ENSG00000112695_ENST00000509698|hu_hu|FALSE|FALSE (ssRNA)
RNA: GGGAGUUCUACAGUCCGACGAUCCUGAAGUCACUCCUGCUUCUUGGGAAAUGAAGCCACAGCCAGCUCAUAUAUGGCAUAUGCUGUUCCUUCAAACAUUCCAAAGGCCUUACCACCAACUGUAAGAAUCAUGGUGGCUCUAUACAACAGAGGAUUGAGCAUCA
B3: 112583360_112588910_3410_CDS_ENSG00000153107_ENST00000341068|human|control|control (ssRNA)
RNA: GGGAGUUCUACAGUCCGACGAUCUAUUCUGGUUAAAUACUGUGAGGAUUCAUCAGAAACCAAGCUCUCAUCACCAAGUAUGUACAGUGCAAUACUCAAGACUACAAGUCUGCUUCUUUCACAGAUUCCAGGGAGGUAAGGAUACAACAGAGGAUUGAGCAUCA
B4: 31034375_31034495_2417_3pUTR_ENSG00000197183_ENST00000359676|human|control|control (ssRNA)
RNA: GGGAGUUCUACAGUCCGACGAUCACCGGCUGCCAUCUCCCAGCAGUCCGUCCUGUCAAGCAGCUGAGGGCCAGAGCUGGAGGGCUGCAGUGGCUGGUUAGGGACAGGACGCUCUCUGGGUUCCAGCUCCUGGACACCCAGUCUCAACAGAGGAUUGAGCAUCA
B5: chr1:109605286:109605287:-_ENSG00000197780_ENST00000461096|hu_mus|hu_hu_hu_mus_True|58_78 (ssRNA)
RNA: GGGAGUUCUACAGUCCGACGAUCAAGUUUCAGAGUAACAUUCAGUAACCUCUUUAACAAUUGUAAUCCUUAUUAUAAACUAAGGGCAAUAAUAAUUUAAUACCGUAAGUGAACUACACACAAAGCCUGAACCGCGAAAAUGGUCAACAGAGGAUUGAGCAUCA
B6: chr6:17872010:17872011:+_ENSMUSG00000029534_ENSMUST00000127322|mus_mus|FALSE|FALSE (ssRNA)
RNA: GGGAGUUCUACAGUCCGACGAUCUCACUGUCUCCUCUCUUCAGGAUGUGUUCUGGUGGGAGGAUUAAGCUUUUCAUUUCUAGUAGAUAUUUUGGCACGUGUGGAUUAAAUUCCACAGCUCUGUGGAUGGCUUCUACUGCAUUCCAACAGAGGAUUGAGCAUCA
B7: chr1:90059312:90059313:+_ENSG00000197147_ENST00000439853|hu_hu|FALSE|FALSE (ssRNA)
RNA: GGGAGUUCUACAGUCCGACGAUCCAAAGACAGUCGUGAGUAUACAUCAAGAAAAUUCAUAUUGAUGAGUUUAUGGUCUUGGUGAUAAAUAUCAAAACAGGAAGUCAGUUAAAACAAGUGUGCAAAUAAGUAAUGGGGACUGGGCAACAGAGGAUUGAGCAUCA
B8: 88684888_88685008_3608_3pUTR_ENSG00000107779_ENST00000372037|human|control|control (ssRNA)
RNA: GGGAGUUCUACAGUCCGACGAUCUAUUUAAAAAGCAUUAAAGAAGUAUAAGUUUAUGUAAAUCAGAUUUCUUGAGAUAACAAGGCAUCUAUAAAAUAUGAACCAUUUUAUUGAAGAACAGUUAUACAGUGUAGCUACAGAUACCAACAGAGGAUUGAGCAUCA
B9: chr4:175158536:175158537:-_ENSG00000164117_ENST00000503293|hu_hu|FALSE|FALSE (ssRNA)
RNA: GGGAGUUCUACAGUCCGACGAUCGCUUGAUUGUAUACUCAGGCUACAAUGACCAGCACUGAUGUAACCCCCAUAUCUGCUAAGUCCUUGGGUAGCUUUAGUCUGAAGUAAAAACUGAAGUCCUAGCAAUUGUGCUUUUUAUGCCAACAGAGGAUUGAGCAUCA
B10: chr3:176767854:176767855:-_ENSG00000177565_ENST00000430069|hu_hu|hu_hu_hu_mus_False|28_28 (ssRNA)
RNA: GGGAGUUCUACAGUCCGACGAUCGACAUCCUUGUUACUGGGCACGUCCUGCCCUCCUUCCCGUAUGCAGUGUCUAAGCACGAGCUGCGUAGGGCCACUCGUGCUGUUCUCACUAAGGUUCCAGAUUCUUGCCGUGGAGUCUCCCAACAGAGGAUUGAGCAUCA
B11: chr2:202488911:202488912:-_ENSG00000155755_ENST00000286196|hu_mus|hu_hu_hu_mus_False|18_18 (ssRNA)
RNA: GGGAGUUCUACAGUCCGACGAUCAUUGAAACAUUUUUCAUAAUCUCCAGUAGCAUUUCAGCAUUAUGUAACAAAAGCUCAAUUGUAAAUACAUGUAUCUUAUAAAAAUACACUUAAAUUUAAAAACGGGGAGCGCAGGCGCCACAACAGAGGAUUGAGCAUCA
B12: chr14:32562060:32562061:+_ENSG00000100852_ENST00000539826|hu_hu|motif|central (ssRNA)
RNA: GGGAGUUCUACAGUCCGACGAUCCUUUAUUUGGGUUUCAUUAAAUUUACGAGGAUAUGUACCAGCAGGUACAUCGGCAAAAGGACAUUGCAACUUGUUUGCCAACUGCUGCCCUUGGUGCCUGAGAAUUGGUAGAUUCUUACUCAACAGAGGAUUGAGCAUCA
B13: chr22:28307021:28307022:-_ENSG00000180957_ENST00000335272|hu_mus|FALSE|FALSE (ssRNA)
RNA: GGGAGUUCUACAGUCCGACGAUCUUCAUAAGGUUCAUUCUUCAGGACUUCGAUUCCUUCUCCACCACCAGUUUCAUUCUUACUCGCUUCUGCAACAGAGUAAAGCUGUCCAACCUGAUACUCUUGAACAGAACACGGCAAAACCAACAGAGGAUUGAGCAUCA
B14: 128432111_128434639_343_3pUTR_ENSG00000119487_ENST00000373498|human|control|control (ssRNA)
RNA: GGGAGUUCUACAGUCCGACGAUCUUCUUUCUUUCCACUGAAUAUUUUUGCAUUUGAUCUGGUUUUGUCUCUCUUUUCGGAGUCGUUCUAAUCUUUGAGCUGUGUUUGAGCGUCUUCUAAUACCAAAGUCCCAACUUGAGGUAACAACAGAGGAUUGAGCAUCA

The assay deals with T1, UNK ZnF1-3. The assay is described as follows: nsRBNS (natural sequence RNA bind-n-seq); RBNS binding buffer (assumed for nsRBNS): 25 mM Tris pH 7.5, 150 mM KCl, 3 mM MgCl2, 0.01% Triton X-100, 500 ug/ml BSA, 20 U/ml SUPERase-In, 4 C; UNK is unkempt and MSI1 is Musashi-1; names of the RNAs are library labels; protein concentration not given here; high values mean tight binding.
As for B1, the binding signal turned out to be 0.759 enrichment R.
As for B2, the figure is 0.807 enrichment R; as for B3, 1.34 enrichment R.
As for B4, the figure is 0.77 enrichment R; as for B5, 1.25 enrichment R.
Next, B6: 0.581 enrichment R; B7: 2.3 enrichment R; B8: 1.96 enrichment R.
On to B9, for which the binding signal came to 0.662 enrichment R.
Next, B10: 0.469 enrichment R; B11: 2.71 enrichment R.
Next, B12: 0.541 enrichment R; B13: 1.36 enrichment R.
As for B14, the figure is 0.557 enrichment R.
